Assay results as given in PMC2859064.
These are yes or no findings as the source states them, for the method shown. For part of these data: Binding seen in cells or lysates may run through a third protein. Some binding calls cover weakened binding; strength is not graded here. One block for each molecule: values may come before it.

Protein sequences, listed by entry. Tags and fused reporters are not part of them.
UniProt P20357: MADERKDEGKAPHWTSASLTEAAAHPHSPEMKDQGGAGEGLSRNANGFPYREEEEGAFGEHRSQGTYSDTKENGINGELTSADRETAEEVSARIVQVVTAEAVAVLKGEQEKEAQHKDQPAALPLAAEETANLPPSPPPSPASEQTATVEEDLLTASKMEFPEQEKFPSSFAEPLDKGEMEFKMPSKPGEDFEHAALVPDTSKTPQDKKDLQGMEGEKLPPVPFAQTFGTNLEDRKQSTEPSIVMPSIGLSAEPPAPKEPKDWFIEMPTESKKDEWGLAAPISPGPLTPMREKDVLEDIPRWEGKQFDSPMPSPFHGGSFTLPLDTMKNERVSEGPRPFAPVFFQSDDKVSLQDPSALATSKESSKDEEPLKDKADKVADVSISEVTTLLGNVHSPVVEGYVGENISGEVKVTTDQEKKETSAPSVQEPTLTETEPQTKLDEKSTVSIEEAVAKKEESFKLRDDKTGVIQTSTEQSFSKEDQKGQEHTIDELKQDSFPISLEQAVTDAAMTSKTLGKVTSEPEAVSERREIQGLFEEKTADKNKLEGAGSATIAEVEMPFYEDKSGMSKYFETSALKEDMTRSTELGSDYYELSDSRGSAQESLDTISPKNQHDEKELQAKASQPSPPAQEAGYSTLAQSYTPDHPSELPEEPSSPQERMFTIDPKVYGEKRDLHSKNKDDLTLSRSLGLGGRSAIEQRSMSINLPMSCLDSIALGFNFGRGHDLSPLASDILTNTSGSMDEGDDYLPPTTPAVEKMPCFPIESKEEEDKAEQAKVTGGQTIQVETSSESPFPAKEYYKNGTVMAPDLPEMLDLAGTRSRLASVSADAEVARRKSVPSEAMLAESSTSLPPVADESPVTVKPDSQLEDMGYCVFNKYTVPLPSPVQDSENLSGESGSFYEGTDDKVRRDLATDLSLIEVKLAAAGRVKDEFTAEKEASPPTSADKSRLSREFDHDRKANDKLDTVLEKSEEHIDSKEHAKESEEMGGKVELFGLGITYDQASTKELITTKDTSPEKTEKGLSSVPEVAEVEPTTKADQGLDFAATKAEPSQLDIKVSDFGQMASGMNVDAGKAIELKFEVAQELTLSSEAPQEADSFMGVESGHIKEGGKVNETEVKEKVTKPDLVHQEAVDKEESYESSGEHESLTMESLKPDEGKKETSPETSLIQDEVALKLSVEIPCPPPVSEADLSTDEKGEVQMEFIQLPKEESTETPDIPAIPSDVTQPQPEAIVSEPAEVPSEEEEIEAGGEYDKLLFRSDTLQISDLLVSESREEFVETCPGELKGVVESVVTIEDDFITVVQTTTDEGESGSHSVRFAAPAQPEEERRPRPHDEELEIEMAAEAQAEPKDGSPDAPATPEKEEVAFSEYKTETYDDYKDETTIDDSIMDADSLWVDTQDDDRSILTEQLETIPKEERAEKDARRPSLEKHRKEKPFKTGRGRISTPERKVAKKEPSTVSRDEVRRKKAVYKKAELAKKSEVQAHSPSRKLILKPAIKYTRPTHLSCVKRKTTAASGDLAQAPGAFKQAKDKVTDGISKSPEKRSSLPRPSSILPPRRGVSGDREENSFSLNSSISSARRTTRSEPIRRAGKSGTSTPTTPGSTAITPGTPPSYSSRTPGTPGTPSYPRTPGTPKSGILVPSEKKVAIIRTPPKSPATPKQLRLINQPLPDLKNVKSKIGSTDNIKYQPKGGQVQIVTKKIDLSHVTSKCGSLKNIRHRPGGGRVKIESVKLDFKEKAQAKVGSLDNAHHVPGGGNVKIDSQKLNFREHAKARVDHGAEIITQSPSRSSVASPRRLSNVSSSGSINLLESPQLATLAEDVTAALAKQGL
UniProt P12367: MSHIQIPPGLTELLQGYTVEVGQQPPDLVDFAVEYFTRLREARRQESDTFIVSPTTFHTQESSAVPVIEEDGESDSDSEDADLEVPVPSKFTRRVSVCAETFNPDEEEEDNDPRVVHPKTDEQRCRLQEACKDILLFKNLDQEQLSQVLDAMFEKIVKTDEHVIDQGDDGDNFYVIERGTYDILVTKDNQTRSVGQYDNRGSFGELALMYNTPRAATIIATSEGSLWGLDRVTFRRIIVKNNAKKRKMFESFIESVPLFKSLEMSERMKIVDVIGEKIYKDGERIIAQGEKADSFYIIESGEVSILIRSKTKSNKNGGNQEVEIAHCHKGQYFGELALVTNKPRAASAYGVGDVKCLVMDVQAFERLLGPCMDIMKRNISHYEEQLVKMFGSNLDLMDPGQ
UniProt P31324: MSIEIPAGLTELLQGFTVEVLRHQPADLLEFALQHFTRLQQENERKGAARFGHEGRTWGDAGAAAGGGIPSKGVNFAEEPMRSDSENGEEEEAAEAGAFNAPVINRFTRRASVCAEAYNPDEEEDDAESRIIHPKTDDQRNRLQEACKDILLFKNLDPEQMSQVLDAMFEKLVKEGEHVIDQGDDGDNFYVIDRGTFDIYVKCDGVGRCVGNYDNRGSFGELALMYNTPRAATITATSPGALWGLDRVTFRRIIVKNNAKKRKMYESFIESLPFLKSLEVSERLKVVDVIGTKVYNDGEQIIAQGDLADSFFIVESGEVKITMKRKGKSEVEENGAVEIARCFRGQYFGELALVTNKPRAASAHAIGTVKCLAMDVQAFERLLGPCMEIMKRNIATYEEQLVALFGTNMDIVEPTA

What was measured:
[1] = target: microtubule associated protein-2 (MAP2) (mouse (endogenous in hippocampus)) (UniProt P20357); test: co-IP; hippocampal extracts of WT, D36 or AKAP5 KO mice (1.0% Triton X-100, 0.5% DOC lysis; diluted to 0.1% Triton X-100); antibodies overnight at 4°C, Protein G magnetic beads, three washes; Western blot
[2] = target: T1, AKAP5 (wild type) (mouse (endogenous in hippocampus and striatum)) (UniProt D3YVF0); test: as above
T1 sequence: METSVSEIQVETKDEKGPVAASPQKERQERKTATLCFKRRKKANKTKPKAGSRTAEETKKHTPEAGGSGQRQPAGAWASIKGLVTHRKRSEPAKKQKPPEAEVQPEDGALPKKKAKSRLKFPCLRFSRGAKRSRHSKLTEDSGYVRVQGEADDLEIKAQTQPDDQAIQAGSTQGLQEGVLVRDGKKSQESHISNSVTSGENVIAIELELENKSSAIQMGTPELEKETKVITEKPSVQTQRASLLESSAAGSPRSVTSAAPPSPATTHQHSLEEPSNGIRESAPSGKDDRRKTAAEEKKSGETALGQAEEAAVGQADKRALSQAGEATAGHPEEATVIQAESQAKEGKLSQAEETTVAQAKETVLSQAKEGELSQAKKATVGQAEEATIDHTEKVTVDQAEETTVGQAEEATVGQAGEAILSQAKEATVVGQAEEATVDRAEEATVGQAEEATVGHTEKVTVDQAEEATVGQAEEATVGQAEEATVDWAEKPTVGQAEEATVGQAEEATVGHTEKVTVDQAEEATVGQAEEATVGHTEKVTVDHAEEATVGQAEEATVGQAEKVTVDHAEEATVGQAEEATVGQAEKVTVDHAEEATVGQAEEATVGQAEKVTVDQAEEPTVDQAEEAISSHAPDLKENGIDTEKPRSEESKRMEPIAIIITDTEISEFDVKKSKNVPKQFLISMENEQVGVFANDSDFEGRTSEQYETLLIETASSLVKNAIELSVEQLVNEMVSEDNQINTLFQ

[3] = target: T2, AKAP5 D36 mutant protein (mouse (endogenous in hippocampus of D36 knock-in mice)) (UniProt D3YVF0); test: as above
T2 sequence: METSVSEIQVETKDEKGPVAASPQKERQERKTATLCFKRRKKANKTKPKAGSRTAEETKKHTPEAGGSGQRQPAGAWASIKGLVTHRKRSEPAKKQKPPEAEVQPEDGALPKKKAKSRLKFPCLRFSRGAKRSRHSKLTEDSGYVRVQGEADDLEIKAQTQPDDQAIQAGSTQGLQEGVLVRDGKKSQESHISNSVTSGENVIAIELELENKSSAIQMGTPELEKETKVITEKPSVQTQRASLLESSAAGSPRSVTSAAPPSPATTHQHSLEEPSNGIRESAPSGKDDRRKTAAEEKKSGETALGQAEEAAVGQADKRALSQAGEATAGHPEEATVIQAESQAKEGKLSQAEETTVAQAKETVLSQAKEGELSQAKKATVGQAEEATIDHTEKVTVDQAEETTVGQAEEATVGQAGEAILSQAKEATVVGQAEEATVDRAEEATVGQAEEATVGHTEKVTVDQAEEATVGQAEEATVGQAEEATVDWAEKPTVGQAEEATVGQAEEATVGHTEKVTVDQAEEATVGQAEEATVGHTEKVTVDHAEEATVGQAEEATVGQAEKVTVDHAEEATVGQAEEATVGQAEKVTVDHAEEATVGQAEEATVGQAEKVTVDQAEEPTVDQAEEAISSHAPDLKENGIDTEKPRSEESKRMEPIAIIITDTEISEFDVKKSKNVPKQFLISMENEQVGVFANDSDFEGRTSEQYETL

[4] = target: T1, AKAP5 (wild type) (mouse (endogenous in hippocampus and striatum)); test: far-Western, overlay or dot blot; RII overlay: WT or KO hippocampal or striatal extracts separated by SDS-PAGE and blotted on nitrocellulose; recombinant RIIβ at 7 nM (methods: 7 nM or 70 nM) in 5% BSA/TBST, 2 hrs at room temperature, with 0.15 µM Ht-31 or control peptide Ht-31P; detected with antibody against RIIβ; only the binder purified
[5] = target: PKA regulatory subunit RIIα (mouse (endogenous in hippocampus)) (UniProt P12367); test: co-IP; hippocampal extracts of WT, D36 or AKAP5 KO mice (1.0% Triton X-100, 0.5% DOC lysis; diluted to 0.1% Triton X-100); antibodies overnight at 4°C, Protein G magnetic beads, three washes; Western blot

Molecule: microtubule associated protein-2 (MAP2) (from UniProt P20357 1-1828)
binding [2]: binds weakly

B1: AKAP5 D36 mutant protein (domain or fragment, UniProt D3YVF0 1-709)
chain: T2 sequence
binding [5]: no binding

Continued, values first:

binding [1]: binds
binding [2]: binds
binding [3]: no binding
Molecule: PKA regulatory subunit RIIα (from UniProt P12367 1-401)

binding [4]: binds
Molecule: recombinant RIIβ (from UniProt P31324 1-416)
